Results taken from the supplement of paper PMC11417369.
Some of the results follow.

System: PfAP2-HC AP2 domain (GST-tagged)
Experiment: gcPBM binding intensity (ln(normalized median fluorescence intensity)); higher = stronger DNA binding
How it was run: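 An Agilent 4 × 180k array of primer-extended double-stranded 36-bp intergenic genomic probes, with negative controls, was incubated for 1 h with GST-tagged P. falciparum DNA-binding domains expressed in E. coli. Alexa488 anti-GST antibody detected bound protein, scanned at 488 nm. Binding intensity is the highest Masliner-normalised natural-log median intensity across replicate spots of either probe orientation.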

Row | Sequence | gcPBM binding intensity (ln)
1 | TTTGAATCCTTATATACACACATTATGTAATATTAT [CACACA_site561] | 9.88
2 | TTATTATCTCTTGTCATTATTATATACTAAGAAGTA [CACACA_negctrl_site410] | 9.52
3 | AATATGAAATATATTACACACATTTATATGTTGAAA [CACACA_site1427] | 9.75
4 | AAAGATTTAGAAAATGAACACACGAGCACCCACCGA [CACACA_site1017] | 10.5
5 | GAAAGAGAGATATATACACACATATTTATATTTTTA [CACACA_site7057] | 9.79
6 | ATATTAAGAATGTATACATGCATATATATATAGTAC [TGCATGCA_site219] | 9.88
7 | ATTTTAATAAACACTTACATGTTTTCCAAATTGTAT [CACACA_negctrl_site1807] | 9.56
8 | TTCGTTAAAAATAAATGTACATAAATAAACCTTATT [XGTACX_site621] | 9.49
9 | TATTAATAAATATGTTTACACACGAAAATACATTTT [CACACA_site1012] | 9.73
10 | TCTAATTATCACATTGCACACACATTTCCTTTTACA [CACACA_site9140] | 10.1
11 | TTATACTGTATAGTCGCACACAAAAATATAAAATAT [CACACA_site3869] | 9.98
12 | TAATTAATTTATGTAACACACATTGTTGATTCAATA [CACACA_site1098] | 9.65
13 | AAAAGTCTCTTTTTAGTGCACATTTTATTTAAATAT | 9.58
14 | CAGATAAGGTGAAGCTGTACAAAAATGTTTTATAAC [XGTACX_site6783] | 9.81
15 | AAACAATTTGGGTGTACACATGATACGTTCGATGAG [CACACA_site5160] | 9.84
16 | ATATTATACATTTATACACACATAAAAAGACAAAAA [CACACA_site3565] | 9.92
17 | ATAACCTAATAATACACACACATGAATATAAATAAC [CACACA_site6584] | 10.2
18 | ATATATATTTTATACGCATGTAATTATTATGTGGTC [TGCATGCA_site45] | 9.76
19 | TATATTAAACAATATACACACATTAATGTATCCATA [CACACA_site5523] | 9.74
20 | TTATATATATATATATGTACACATATATAACATGAT [XGTACX_site6643] | 9.65
21 | TGTAATATTTTTCATGCATGCTCTTCTTTTACATAA [TGCATGCA_site144] | 10.2
22 | ATAATTTATATTACTTGTACATATTTATATGAACGA [XGTACX_site3610] | 9.61
23 | AAAATTAAAAATAACACACACATATTTATATTTATA [CACACA_site7329] | 10.5

Row | Sequence | gcPBM binding intensity (ln)
24 | AAGGAGAAATATTGCACACGTGCAAAATGGTATGAG [CACACA_site259] | 10.3
25 | TATTCTTTTATGAATACACACATATACGAAAATATT [CACACA_site6585] | 9.55
26 | CTTAATTTTTTTTAATGTACATACATATAAACCTTT [XGTACX_site2233] | 9.67
27 | AGTTATATGTACTACACACGTACACAAAATAAGATA [CACACA_site3719] | 9.87
28 | AAAAGGTTATCAAAATGTACGAAATGTTACAAAAAT [XGTACX_site6215] | 9.67
29 | AGGTGTCATAGATGCACACAAAAGTAACACGCACCT [CACACA_site4418] | 9.84
30 | AAATGTTAAAAAGAGAAAAACAATAAAAAACAATTA [CACACA_negctrl_site1044] | 9.74
31 | ATATGCTATTAATTATGTACATATATATATATATAT [XGTACX_site4901] | 9.82
32 | GTACATTATATATATACACACATACATAATAAAGAA [CACACA_site5528] | 10.1
33 | GGACTATACAGTTATACACACACATATATATATAAT [CACACA_site7991] | 10.1
34 | ACTACGTGTCAAAAATATTAATTACAAATGAATAAA [GTGCAC_negctrl_site248] | 9.52
35 | TATTAATATATAGTAGTGCAATAAAGATATACTGAA | 9.74
36 | AACATACTCACGAACATACACACGGACATACATACG [CACACA_site603] | 10.1
37 | ATGCATACACTTATATGTACACATTTACATATTATT [XGTACX_site2841] | 10.1
38 | AATAAATAAATATATTGTACATATATATATATATAT [XGTACX_site8627] | 9.63
39 | CGAAAGGAAATATAACGTACATAAGATTATATTCAC [XGTACX_site3868] | 9.66
40 | ATGAACAAGGGGCACACACACATTATGACTAATTTA [CACACA_site3204] | 10.2
41 | TATTAAAAGAAAAAAAAAAAAAAATTAATACATATA [XGTACX_negctrl_site582] | 9.36
42 | AAAACAAACGGACACACACACATATATATATATATA [CACACA_site5924] | 10.5
43 | ACATGTAAATTTACATGTACATGTAACACTTAATAT [XGTACX_site4575] | 9.74
44 | TAATATTTTAATTGTGTGCACATTAATATTATAAAA | 9.64
45 | TTTAGTGAGTTTGTTGTGCACTGAAAAAATTACAAT | 9.48
